Assay results from PMC10567853, “USP1 promotes cholangiocarcinoma progression by deubiquitinating PARP1 to prevent its proteasomal degradation” (Cell Death & Disease, 2023).
Positions count from the first letter of the chain named. These are yes or no findings as the source states them, for the method shown. Binding seen in cells or lysates may run through a third protein. Some binding calls cover weakened binding; strength is not graded here. For some of these results: Sequences can lack the tags named with a protein.

Protein sequences, listed by entry. Tags and fused reporters are not part of them. Lines headed by an entry give the natural chain unless they say otherwise; changes in a name come on top.
UniProt P09874: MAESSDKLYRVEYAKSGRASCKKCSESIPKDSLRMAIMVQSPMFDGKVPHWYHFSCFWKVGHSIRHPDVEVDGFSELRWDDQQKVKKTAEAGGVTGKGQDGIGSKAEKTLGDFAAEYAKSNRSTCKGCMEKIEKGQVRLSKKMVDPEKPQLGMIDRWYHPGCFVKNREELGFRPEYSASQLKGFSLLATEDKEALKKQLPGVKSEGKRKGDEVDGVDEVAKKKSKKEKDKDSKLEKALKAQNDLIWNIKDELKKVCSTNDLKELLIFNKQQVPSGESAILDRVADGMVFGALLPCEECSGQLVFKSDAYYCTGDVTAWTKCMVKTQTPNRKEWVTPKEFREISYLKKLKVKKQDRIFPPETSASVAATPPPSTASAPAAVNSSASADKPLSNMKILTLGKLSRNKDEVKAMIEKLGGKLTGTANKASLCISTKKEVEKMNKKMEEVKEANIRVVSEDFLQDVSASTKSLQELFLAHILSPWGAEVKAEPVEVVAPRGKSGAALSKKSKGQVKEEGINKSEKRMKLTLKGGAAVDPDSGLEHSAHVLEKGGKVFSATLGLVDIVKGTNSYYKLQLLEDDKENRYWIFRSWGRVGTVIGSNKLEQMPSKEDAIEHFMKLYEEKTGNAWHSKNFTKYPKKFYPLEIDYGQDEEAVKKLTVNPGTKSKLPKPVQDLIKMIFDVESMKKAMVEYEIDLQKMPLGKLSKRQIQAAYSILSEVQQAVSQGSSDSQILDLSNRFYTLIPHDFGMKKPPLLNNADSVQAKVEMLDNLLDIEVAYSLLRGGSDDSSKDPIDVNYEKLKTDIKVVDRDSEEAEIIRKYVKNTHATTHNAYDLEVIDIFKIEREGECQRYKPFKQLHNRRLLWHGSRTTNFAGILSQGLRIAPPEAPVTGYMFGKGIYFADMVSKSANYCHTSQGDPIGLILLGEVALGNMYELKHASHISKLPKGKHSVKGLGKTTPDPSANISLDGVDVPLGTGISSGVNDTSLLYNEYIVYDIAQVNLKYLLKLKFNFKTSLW

What was measured:
[1] = biological target: T1, HA-tagged full-length (FL) USP1 (UniProt O94782); assay: co-IP; HA- and Myc-tagged proteins co-transfected in HEK-293T cells (K130Q also in RBE); anti-HA magnetic beads or anti-MYC agarose beads overnight at 4 °C; IB with antibodies against HA or Myc
T1 sequence: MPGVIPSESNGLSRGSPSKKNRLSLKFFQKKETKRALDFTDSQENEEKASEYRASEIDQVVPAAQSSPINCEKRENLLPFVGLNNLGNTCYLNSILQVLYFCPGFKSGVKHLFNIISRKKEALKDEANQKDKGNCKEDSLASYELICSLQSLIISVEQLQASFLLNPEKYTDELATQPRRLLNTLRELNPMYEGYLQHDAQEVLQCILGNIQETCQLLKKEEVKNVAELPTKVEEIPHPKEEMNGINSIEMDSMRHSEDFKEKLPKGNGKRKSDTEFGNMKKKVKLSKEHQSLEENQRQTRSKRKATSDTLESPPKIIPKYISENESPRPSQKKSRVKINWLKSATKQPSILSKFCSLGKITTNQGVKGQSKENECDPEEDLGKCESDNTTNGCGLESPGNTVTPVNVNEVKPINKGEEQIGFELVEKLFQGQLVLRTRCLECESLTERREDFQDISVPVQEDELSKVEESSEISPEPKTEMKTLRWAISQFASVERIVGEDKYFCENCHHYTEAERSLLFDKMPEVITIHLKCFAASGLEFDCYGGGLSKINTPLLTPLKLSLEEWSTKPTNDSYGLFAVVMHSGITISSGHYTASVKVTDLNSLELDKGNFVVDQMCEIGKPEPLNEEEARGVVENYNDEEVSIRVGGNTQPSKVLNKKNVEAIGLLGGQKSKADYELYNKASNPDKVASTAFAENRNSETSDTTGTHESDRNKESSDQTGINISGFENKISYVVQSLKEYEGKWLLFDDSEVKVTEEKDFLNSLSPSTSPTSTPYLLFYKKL

HA-USP1-201-785 = biological target: T2, HA-USP1-201-785 (UniProt O94782); assay: as above
T2 sequence: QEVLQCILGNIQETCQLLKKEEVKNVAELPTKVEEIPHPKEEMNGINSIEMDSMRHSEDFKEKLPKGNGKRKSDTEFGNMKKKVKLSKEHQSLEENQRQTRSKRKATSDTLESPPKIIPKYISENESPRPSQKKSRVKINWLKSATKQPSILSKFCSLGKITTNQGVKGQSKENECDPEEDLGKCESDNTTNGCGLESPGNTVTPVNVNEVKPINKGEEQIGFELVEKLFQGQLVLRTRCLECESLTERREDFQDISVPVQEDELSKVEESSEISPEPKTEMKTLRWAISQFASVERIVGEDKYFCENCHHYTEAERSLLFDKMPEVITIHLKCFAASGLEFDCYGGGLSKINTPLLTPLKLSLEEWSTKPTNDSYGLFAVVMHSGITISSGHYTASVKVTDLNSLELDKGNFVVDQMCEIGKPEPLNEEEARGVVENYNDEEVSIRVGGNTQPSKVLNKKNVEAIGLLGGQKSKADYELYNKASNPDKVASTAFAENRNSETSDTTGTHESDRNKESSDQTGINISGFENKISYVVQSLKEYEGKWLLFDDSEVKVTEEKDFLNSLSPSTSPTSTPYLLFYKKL

HA-USP1-K130Q = biological target: T3, HA-USP1-K130Q (UniProt O94782); assay: as above
T3 sequence: T1 sequence with K130Q

HA-USP1-1-200 = biological target: T4, HA-USP1-1-200 (UniProt O94782); assay: as above
T4 sequence: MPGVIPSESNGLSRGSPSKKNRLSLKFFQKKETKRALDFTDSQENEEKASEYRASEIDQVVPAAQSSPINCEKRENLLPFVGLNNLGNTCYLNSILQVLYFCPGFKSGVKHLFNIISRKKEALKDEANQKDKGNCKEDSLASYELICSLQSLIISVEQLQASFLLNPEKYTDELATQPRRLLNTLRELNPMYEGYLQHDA

HA-USP1-1-400 = biological target: T5, HA-USP1-1-400 (UniProt O94782); assay: as above
T5 sequence: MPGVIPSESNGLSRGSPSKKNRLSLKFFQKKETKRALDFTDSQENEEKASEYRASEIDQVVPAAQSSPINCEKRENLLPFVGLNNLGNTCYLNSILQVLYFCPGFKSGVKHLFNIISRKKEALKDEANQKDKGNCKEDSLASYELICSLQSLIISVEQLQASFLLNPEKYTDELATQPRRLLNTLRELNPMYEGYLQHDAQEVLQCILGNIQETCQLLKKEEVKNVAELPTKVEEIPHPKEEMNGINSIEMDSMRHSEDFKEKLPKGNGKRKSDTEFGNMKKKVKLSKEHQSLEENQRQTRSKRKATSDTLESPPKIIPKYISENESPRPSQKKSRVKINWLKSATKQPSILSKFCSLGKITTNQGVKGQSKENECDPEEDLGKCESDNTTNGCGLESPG

HA-USP1-401-785 = biological target: T6, HA-USP1-401-785 (UniProt O94782); assay: as above
T6 sequence: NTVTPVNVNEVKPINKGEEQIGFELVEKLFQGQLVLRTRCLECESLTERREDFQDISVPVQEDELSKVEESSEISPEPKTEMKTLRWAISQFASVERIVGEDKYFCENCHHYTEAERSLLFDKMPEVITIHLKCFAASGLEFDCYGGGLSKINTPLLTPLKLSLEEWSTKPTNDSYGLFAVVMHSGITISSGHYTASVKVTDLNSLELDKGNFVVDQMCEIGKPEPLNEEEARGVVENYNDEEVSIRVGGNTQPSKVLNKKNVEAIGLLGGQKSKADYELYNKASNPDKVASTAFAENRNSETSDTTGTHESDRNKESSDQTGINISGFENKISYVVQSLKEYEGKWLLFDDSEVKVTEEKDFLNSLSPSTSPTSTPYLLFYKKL

[2] = biological target: T7, USP1 (ubiquitin-specific protease 1), endogenous (human (endogenous in HuCC-T1, HCCC-9810, RBE)) (UniProt O94782); assay: proximity ligation; in situ PLA on fixed cells with anti-USP1 and anti-PARP1 antibodies (Duolink rabbit PLUS, mouse MINUS)
T7 sequence: T1 sequence

[3] = biological target: T7, USP1 (ubiquitin-specific protease 1), endogenous (human (endogenous in HuCC-T1, HCCC-9810, RBE)); assay: co-IP; endogenous proteins in lysates of HuCC-T1, HCCC-9810 and RBE cells; 3 ug antibody overnight at 4 °C, Protein A/G beads; IgG as isotype control

Substance: Myc-PARP1-1-203 (from UniProt P09874 1-203) (domain or fragment)
- binding [1]: no binding

Substance: Myc-PARP1-1-476 (from UniProt P09874 1-476) (domain or fragment)
- binding [1]: binds

Substance: Myc-PARP1-1-638 (from UniProt P09874 1-638) (domain or fragment)
- binding [1]: binds

Substance: Myc-PARP1-1-779 (from UniProt P09874 1-779) (domain or fragment)
- binding [1]: binds

Substance: Myc-PARP1-203-1014 (from UniProt P09874 203-1014) (domain or fragment)
- binding [1]: binds

Substance: Myc-tagged full-length (FL) PARP1 (from UniProt P09874 1-1014) (enzyme)
- binding (HA-USP1-201-785): binds
- binding [1]: binds
- binding (HA-USP1-K130Q): binds
- binding (HA-USP1-1-200): no binding
- binding (HA-USP1-1-400): no binding
- binding (HA-USP1-401-785): binds

Substance: Poly (ADP-ribose) polymerase 1 (PARP1), endogenous (from UniProt P09874 1-1014) (enzyme)
- binding [2]: binds
- binding [3]: binds
